# Laboratory results published in the supplement of paper PMC9446081.
# The whole screen tested about 39,000 compounds, of which about 220 (0.56%) showed activity. Some of the results follow.
# Tested on: Escherichia coli K-12 BW25113
# Experiment: relative growth (OD600 normalised to plate interquartile mean) (fraction); higher = less growth inhibition, active = 0.2 or less
# Conditions: 50 µM; LB; incubation time: overnight (16-24 h)
# 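Also: static incubation at 37 °C against the wild-type strain, values averaged over two biological replicates.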
row,SMILES,relative growth
1,C[C@@H]1CN([C@H](C)CO)C(=O)Cc2cc(NC(=O)C3CC3)ccc2O[C@@H]1CN(C)Cc1ccc2c(c1)OCO2,inactive: 0.99
2,CCCC#Cc1cnc2c(c1)C(=O)N([C@@H](C)CO)C[C@H](C)[C@@H](CN(C)C(=O)c1ccc3c(c1)OCO3)O2,inactive: 1.02
3,CN(C)CCC=C1c2ccccc2Sc2ccc(Cl)cc21.Cl,inactive: 0.728
4,CO[C@H]1CN(C)C(=O)c2cc(NS(=O)(=O)CC(F)(F)F)ccc2OC[C@H](C)N(Cc2ccccn2)C[C@H]1C,inactive: 0.977
5,CC(=O)N[C@@H]1[C@@H](O)[C@H](O)[C@H](CO)O[C@@H]1O,inactive: 0.978
6,COc1ccc(-c2cc(C(F)F)nn2-c2ccc(S(N)(=O)=O)cc2)cc1F,inactive: 0.955
7,CC(C)NC(=O)Nc1ccc2c(c1)CC(=O)N([C@H](C)CO)C[C@@H](C)[C@H](CN(C)C(=O)NC1CCCCC1)O2,inactive: 1.01
8,NC(=O)c1cn([C@@H]2O[C@H](CO)[C@@H](O)[C@H]2O)c2ncnc(N)c2c1=O,inactive: 1.03
9,C[C@H]1CN([C@@H](C)CO)C(=O)c2cc(C#Cc3ccccc3)cnc2O[C@@H]1CN(C)S(=O)(=O)c1ccccc1F,inactive: 1.04
10,Cc1ccc(S(=O)(=O)N(C)C[C@H]2OCCCC[C@H](C)Oc3ccc(NC(=O)Nc4cccc5ccccc45)cc3C(=O)N([C@@H](C)CO)C[C@@H]2C)cc1,inactive: 1.04
11,C[C@@H]1CN([C@@H](C)CO)C(=O)Cc2cc(NS(=O)(=O)c3ccccc3)ccc2O[C@@H]1CN(C)CC1CC1,inactive: 0.999
12,C[C@H]1[C@H]([Si](C)(C)F)[C@@H](CCO)O[C@]12C(=O)N(Cc1cccc(N3C(=O)c4ccccc4Oc4ccccc43)c1)c1ccccc12,inactive: 1.02
13,C[C@H](CO)N1C[C@H](C)[C@@H](CN(C)Cc2ccc(C(F)(F)F)cc2)Oc2ccc(NC(=O)CCC(F)(F)F)cc2CC1=O,inactive: 0.92
14,CN1CCc2c(n[nH]c2CNc2ncccn2)C1,inactive: 1
15,COC[C@@H]1CN(C(=O)[C@H]2CCCN2C)N1,inactive: 1.01
16,COc1ccc(S(=O)(=O)N(C)C[C@@H]2Oc3cc(C#CC4CCCC4)ccc3S(=O)(=O)N([C@H](C)CO)C[C@@H]2C)cc1,inactive: 1.04
17,C[C@H](CO)N1C[C@H](C)[C@H](CN(C)C(=O)Nc2cccc3ccccc23)Oc2c(NS(=O)(=O)c3ccccc3)cccc2C1=O,inactive: 0.971
18,C[C@@H]1CCCCO[C@@H](CN(C)S(=O)(=O)c2ccc(F)cc2)[C@H](C)CN([C@@H](C)CO)C(=O)c2cc(NS(=O)(=O)c3ccc(Cl)cc3)ccc2O1,inactive: 1.03
19,C[C@H]1CCCCO[C@@H](CN(C)Cc2ccc(C(F)(F)F)cc2)[C@@H](C)CN([C@@H](C)CO)C(=O)c2cc(NS(=O)(=O)c3ccc(Cl)cc3)ccc2O1,inactive: 1.05

row,SMILES,relative growth
1,Cc1ccc(S(=O)(=O)Nc2ccc3c(c2)C(=O)N([C@H](C)CO)C[C@@H](C)[C@H](CN(C)Cc2ccccc2)OCCCC[C@@H](C)O3)cc1,inactive: 0.976
2,Cc1ccc(=O)[nH]n1,inactive: 1.02
3,COc1ccc(C#Cc2ccc([C@H]3[C@H](CO)N4CCCCN(S(=O)(=O)c5cn(C)cn5)C[C@@H]34)cc2)cc1,inactive: 0.936
4,COc1ccc(S(=O)(=O)N(C)C[C@@H]2Oc3ccc(NC(=O)Nc4cccc5ccccc45)cc3C(=O)N([C@H](C)CO)C[C@@H]2C)cc1,inactive: 1.03
5,C[C@@H]1CN([C@@H](C)CO)C(=O)c2cccc(NC(=O)Nc3ccc4c(c3)OCO4)c2O[C@@H]1CN(C)Cc1ccc(C(F)(F)F)cc1,inactive: 1.04
6,C=CCOC(=O)[C@H]1[C@@H]2C(=O)O[C@@H](c3ccccc3)[C@@H](c3ccccc3)N2[C@@H](c2ccc(OCCOC(=O)[C@H]3C[C@H]4C(=O)N[C@@H](CCCC[N+](C)(C)C)C(=O)N4[C@H]3c3cccc(OCCO)c3)cc2)[C@]12C(=O)Nc1ccc(I)cc12,inactive: 1.04
7,C[C@H](CO)N1C[C@H](C)[C@H](CN(C)C(=O)Cc2ccccn2)Oc2ncc(C#CC3CCCC3)cc2C1=O,inactive: 0.981
8,C[C@@H]1CN([C@@H](C)CO)C(=O)c2cc(NC(=O)CCCCCC(=O)Nc3ccccc3N)ccc2O[C@H]1CN(C)S(C)(=O)=O,inactive: 1.01
9,CN1CCN(C(=O)C[C@H]2CC[C@H]3[C@@H](COC[C@@H](O)CN3C(=O)C3CCOCC3)O2)CC1,inactive: 0.991
10,Cc1ccc(S(=O)(=O)N(C)C[C@@H]2OCCCC[C@@H](C)Oc3ccc(NC(=O)Nc4ccc(F)cc4)cc3C(=O)N([C@@H](C)CO)C[C@H]2C)cc1,inactive: 1.03
11,COc1ccc(CN(C)C[C@H]2Oc3c(NS(=O)(=O)c4cn(C)cn4)cccc3C(=O)N([C@@H](C)CO)C[C@H]2C)cc1,inactive: 1
12,COc1ccc(NC(=O)N(C)C[C@H]2Oc3ccc(NC(=O)Nc4cccc5ccccc45)cc3C(=O)N([C@@H](C)CO)C[C@@H]2C)cc1,inactive: 1.03
13,CCOC(=O)Nc1c[n+](N2CCOCC2)no1,inactive: 0.964
14,C[C@H]1CN([C@@H](C)CO)C(=O)c2cccc(NC(=O)NC3CCCCC3)c2O[C@H]1CN(C)Cc1ccc(Oc2ccccc2)cc1,inactive: 0.979
15,Cc1noc(C)c1NC(=O)N(C)C[C@@H]1OCCCC[C@@H](C)Oc2ccc(NS(=O)(=O)c3cccs3)cc2C(=O)N([C@H](C)CO)C[C@H]1C,inactive: 1
16,C[C@H]1CN([C@@H](C)CO)C(=O)c2cc(NC(=O)NC3CCCCC3)ccc2O[C@H]1CN(C)Cc1ccc(Cl)c(Cl)c1,inactive: 1
17,C[C@@H]1CN([C@@H](C)CO)C(=O)c2cc(NC(=O)CCCN(C)C)ccc2O[C@H]1CN(C)S(=O)(=O)c1ccc(F)cc1,inactive: 1.01
18,C[C@H](CO)N1C[C@H](C)[C@H](CN(C)S(=O)(=O)c2ccccc2)Oc2ncc(C#CC3(O)CCCC3)cc2C1=O,inactive: 1.04
19,Cc1ccc(S(=O)(=O)Nc2ccc3c(c2)CC(=O)N([C@@H](C)CO)C[C@@H](C)[C@H](CN(C)Cc2ccc(-c4ccccc4)cc2)O3)cc1,inactive: 1.01
